The values that follow come from the supplement of paper PMC7826260.

The other results are listed elsewhere or left out. The data describe in vitro nicking of single-stranded DNA by Rep domains (1 h at 37 °C, 3 µM enzyme); the outer parts of the 90-letter strands are left off. The score is log2 (uncut reads / reads without enzyme); more negative means more cut, near 0 not cut, and no call is made. Because reads are shares of a total, they shift together; uncut strands gain when others are lost, and binding without cutting may add a little.

In this assay the test system is T1, Rep nickase domain of tomato golden mosaic virus.
T1 sequence (protein, residues 1-124, tag omitted): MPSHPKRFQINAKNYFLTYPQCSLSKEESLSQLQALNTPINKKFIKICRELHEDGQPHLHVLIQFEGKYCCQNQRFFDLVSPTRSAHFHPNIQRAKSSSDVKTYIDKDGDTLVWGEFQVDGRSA
Nature of the assay: uncleaved DNA left, log2 of reads against the no-enzyme library (log2 ratio); higher = less cleavage (more negative = more Rep cleavage of the k-mer); sequences stand for … in CTCGTCCG…ACCGGAGA
As for the experimental part: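 A pool of 90-nt single-stranded DNAs with seven random bases just before the constant AC of the nick site (name = the seven bases) was cut by 3 µM recombinant His6-SUMO-tagged Rep nickase domain (300 nM DNA, 50 mM HEPES pH 8.0, 50 mM NaCl, 1 mM MnCl2, 1 h, 37 °C, three replicates). Uncut DNA was amplified and sequenced.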
In the case of CAAGACC, the “uncleaved DNA left (log2)” value is -0.0884. On to CGTCGGA, for which the “uncleaved DNA left (log2)” value was -0.0381.

For ACATAAC, the “uncleaved DNA left (log2)” value was 0.0639.

As for GCTGCCT, the “uncleaved DNA left (log2)” value was -0.0459. In the case of TTTGTAA, the “uncleaved DNA left (log2)” value stood at 0.139. Turning to ATTAATC, the “uncleaved DNA left (log2)” value was -0.049. For the sequence CTGGCAG, the “uncleaved DNA left (log2)” value was -0.00768. For GAGCAAA the value was 0.00867; for TCACGCG, -0.154. For CTTAAAA, the “uncleaved DNA left (log2)” value was determined as 0.0608. For CGTACCA, the “uncleaved DNA left (log2)” value was -0.0232. Consider GCCCCCT, for which the “uncleaved DNA left (log2)” value is -0.0249. As to GTGAGGC, the “uncleaved DNA left (log2)” value was found to be 0.109. As for TATATCC, the “uncleaved DNA left (log2)” value is -0.0423. In the case of CCGGTCA, the “uncleaved DNA left (log2)” value is -0.027. Turning to TGAGAAA, the “uncleaved DNA left (log2)” value stood at 0.226. Consider CGTGGGA, for which the “uncleaved DNA left (log2)” value was determined as 0.0705. For the sequence CGGACGT, the “uncleaved DNA left (log2)” value was -0.0222.

On to CGTAAGT, for which the “uncleaved DNA left (log2)” value was found to be 0.0146. Consider GGGATGC, for which the “uncleaved DNA left (log2)” value stood at 0.025. For GCCATCG the value was 0.00238; for CGAGAGA, 0.0153; for TAGTGGC, -0.0868. On to TACCACC, for which the “uncleaved DNA left (log2)” value is -0.189. Take GCGATGA: the “uncleaved DNA left (log2)” value is -0.033. Turning to GTAGTGA, the “uncleaved DNA left (log2)” value is -0.0481.

Take GTGGCAC: the “uncleaved DNA left (log2)” value turned out to be 0.191. For CGATACA, the “uncleaved DNA left (log2)” value turned out to be 0.195. Consider GCAACAG, for which the “uncleaved DNA left (log2)” value stood at 0.0486. In the case of TGGCTCG, the “uncleaved DNA left (log2)” value is -0.227. On to GACCTGC, for which the “uncleaved DNA left (log2)” value stood at 0.0028. As for TCCCGGA, the “uncleaved DNA left (log2)” value came out at 0.0155.

In the case of TTGAACT, the “uncleaved DNA left (log2)” value was -0.0726.

As to AGACTAT, the “uncleaved DNA left (log2)” value is 0.0747.

As to GCTTGAG, the “uncleaved DNA left (log2)” value turned out to be 0.0437. With ATCGTGG, the “uncleaved DNA left (log2)” value was 0.021. For GATATCT the value was 0.08; for ACCAATT, 0.175. TCCAAAA: the “uncleaved DNA left (log2)” value stood at 0.00117.

Consider TTAGATA, for which the “uncleaved DNA left (log2)” value turned out to be 0.0589.
